In all, about 13,000 compounds were measured (“IFI”: median about 4, highest 2% from about 17 on). The list shows a part of the results.
assay: GSK_TCMDC: Inhibition Frequency Index (IFI). The number of non-kinase HTS assays where a compound showed > 50 % inhibition, expressed as a percentage of the number of such assays in which the compound was tested (-0 is zero); format: functional

Compound | IFI
C[C@@H](CC1CCCCC1)OC(=O)N(C)[C@H]1CCN(C#N)C1 | 11.2%
Cc1cccc2nc(-c3ccc(-c4cccc(CN5CCCC(O)C5)c4)s3)[nH]c12 (centres undefined) | 0%
CCCCNCc1ccc(-c2nc(CN(CCCn3ccnc3)C(=O)NC3CC3c3ccccc3)cs2)cc1 (centres undefined) | 5.96%
Cc1cccc2nc(-c3ccc(-c4ccc(CNCc5cnn(-c6ccccc6)n5)cc4)s3)[nH]c12 | 4.92%
Cc1nc(SCC(=O)N2CCCC2=O)c2c(C)c(C)sc2n1 | 1.9%
COc1cccc(Nc2nc(Nc3cccc(C#N)c3)cc(C(F)(F)F)n2)c1 | 4.76%
O=C(Nc1cccc(-c2ccc(-c3nc4cc(F)ccc4[nH]3)cc2)c1)c1ccncc1 | 10.3%
Cc1cc(F)ccc1[C@H]1CNCCN1C(=O)N(C)C(C)(C)c1cc(C(F)(F)F)cc(C(F)(F)F)c1 | 4.72%
N#Cc1ccc(-c2ccc(C(=O)NCCCCN3CCC(c4cn(CCO)c5ccccc45)CC3)cc2)cc1 | 3.64%
CCCCCN1CCCC1CNS(=O)(=O)c1ccc(C(=O)Nc2ccc(C(F)(F)F)cc2)cc1 (centres undefined) | 2.41%
O=C(Nc1cccc(CN2CCCN(Cc3ccc(O)cc3)CC2)c1)c1cccc(Cl)c1 | 2.68%
O=C(c1ccco1)c1cn(CCOc2ccccc2)c2ccccc12 | 7.55%
O=C(NC1CC1)c1cnc(N2CCN(Cc3c(F)cccc3Cl)CC2)c(Cl)c1 | 6.12%
COc1ccc(-c2cnc3[nH]cc(-c4ccc(CCC(=O)O)cc4)c3c2)cn1 | 1.98%
c1ccc(-c2cccc(-c3ccccn3)n2)nc1 | 5.59%
Cc1c(C(=O)Nc2cc(Sc3ccc(F)cc3)cc([N+](=O)[O-])c2)sc2ncn(Cc3cccc(F)c3)c(=O)c12 | 0.88%
Cc1cc(NC(c2ccc(Cl)cc2)c2ccc3cccnc3c2O)no1 (centres undefined) | 8.22%
Cc1nc(-c2ccccc2)nc(N2CCN(C(=O)c3ccco3)CC2)c1Cc1ccccc1F | 0%
O=S(=O)(NC1CCN(c2ccnc3cc(Cl)ccc23)C1)c1ccc(C(F)(F)F)cc1 (centres undefined) | 6.06%
O=C(N[C@H](Cc1ccc(Cl)cc1)C(=O)N1CCN(c2ccnc3cc(Cl)ccc23)CC1)[C@H]1Cc2ccccc2CN1 | 4.17%
Oc1ccccc1CN1CCCC(COC(c2ccc(F)cc2)c2ccc(F)cc2)C1 (centres undefined) | 7.81%
O=C(/C=C/c1ccc(Cl)c(Cl)c1)NC1CCC(CN2CCC(Cc3cc4ccccc4[nH]3)CC2)CC1 (centres undefined) | 10.7%

Compound | IFI
COc1ccc(CCOc2c(C)nc(N)nc2N)cc1OC | 0.72%
CCCCCCn1c(Sc2ccc(C#N)c([N+](=O)[O-])c2)nnc1-c1ccccc1 | 7.86%
CCCCCCNC(=O)C1Cc2c([nH]c3cc(Cl)ccc23)C2(CCN(CCC)CC2)N1 (centres undefined) | 2.86%
COc1ccc(-c2c(-c3ccc(OCc4ccccc4)cc3O)n[nH]c2C(F)(F)F)cc1 | 6.82%
COc1cccc(C(=O)NC(c2ccc(Cl)cc2Cl)c2cc(Cl)c3cccnc3c2O)c1 (centres undefined) | 3.92%
O=[N+]([O-])c1ccc(Nc2nc(N/N=C/c3ccc(-c4ccc([N+](=O)[O-])cc4)o3)nc(Nc3ccccc3)n2)cc1 | 0.8%
CCCCCCCC1CCN(C[C@H](O)c2ccnc3ccc(OC)cc23)CC1 | 6.87%
COc1cccc(-c2nn(C)c3sc(C(=O)NCCN(C)Cc4ccccc4)cc23)c1 | 2.11%
CC(C)C(C)(C#N)NC(=O)CSc1nc2ccc([N+](=O)[O-])cc2s1 (centres undefined) | 0.71%
O=C(Nc1cccc(-c2ccc(-c3nc4ccccc4[nH]3)cc2)c1)Nc1ccc(F)c(F)c1F | 4.85%
COc1ccc2nccc([C@@H](O)CN3CCC(NC/C=C/c4cccnc4)CC3)c2c1 | -0%
Cc1cc(N(C)C)nc(Nc2ccc(NC(=O)c3cccc(F)c3)cc2)n1 | 2.78%
COC(=O)C1=CNC=C(C(=O)OC)C1c1ccc(Cl)c([N+](=O)[O-])c1 | 5.59%
CN(C)CCNCc1ccc(-c2cccc(-c3nc4ccccc4[nH]3)c2)cc1 | 7.69%
CCNc1cc(C(=O)N[C@@H](Cc2ccccc2)[C@H](O)CNCc2cccc(-n3ccnc3)c2)cc(N2CCCC2=O)c1 | -0%
COc1ccc(C=NNc2ccnc3cc(F)c(C)cc23)c2ccccc12 | 0.75%
CCCNc1ccc(-c2cc(C(N)=O)c3[nH]cc(C4CCN(S(=O)(=O)CC)CC4)c3c2)cn1 | 6.67%
CCCN(c1ccc(O)c(CN2CCCCC2)c1)c1ccc([N+](=O)[O-])cn1 | 0%
c1ccc(CC2=NCCN2)cc1 | 0.71%
COc1ccc2nccc([C@@H](O)CN3CCC(NCc4nc5ccccc5[nH]4)CC3)c2c1 | 1.44%
COc1ccc2c(NN=Cc3ccc(F)cc3)ccnc2c1 | 6.92%
O=C(Nc1cccc(C(F)(F)F)c1)Nc1ccc(Cl)c(C(F)(F)F)c1 | 16.7%
